Over roughly 33,000 sequences, “E-score (-0.5 to 0.5)” has its median near -0.041; the highest 2% begin near 0.37. The list shows a part of the results.
Each sequence was assayed against T1, Ecm22 (UniProt Q05958) (assay: PBM E-score (8-mer binding enrichment) (E-score (-0.5 to 0.5)); higher = stronger / more preferred TF binding; most listed sequences are background and not binding sites). Settings: protein concentration: 200 nM; construct: GST-full length.
T1 sequence: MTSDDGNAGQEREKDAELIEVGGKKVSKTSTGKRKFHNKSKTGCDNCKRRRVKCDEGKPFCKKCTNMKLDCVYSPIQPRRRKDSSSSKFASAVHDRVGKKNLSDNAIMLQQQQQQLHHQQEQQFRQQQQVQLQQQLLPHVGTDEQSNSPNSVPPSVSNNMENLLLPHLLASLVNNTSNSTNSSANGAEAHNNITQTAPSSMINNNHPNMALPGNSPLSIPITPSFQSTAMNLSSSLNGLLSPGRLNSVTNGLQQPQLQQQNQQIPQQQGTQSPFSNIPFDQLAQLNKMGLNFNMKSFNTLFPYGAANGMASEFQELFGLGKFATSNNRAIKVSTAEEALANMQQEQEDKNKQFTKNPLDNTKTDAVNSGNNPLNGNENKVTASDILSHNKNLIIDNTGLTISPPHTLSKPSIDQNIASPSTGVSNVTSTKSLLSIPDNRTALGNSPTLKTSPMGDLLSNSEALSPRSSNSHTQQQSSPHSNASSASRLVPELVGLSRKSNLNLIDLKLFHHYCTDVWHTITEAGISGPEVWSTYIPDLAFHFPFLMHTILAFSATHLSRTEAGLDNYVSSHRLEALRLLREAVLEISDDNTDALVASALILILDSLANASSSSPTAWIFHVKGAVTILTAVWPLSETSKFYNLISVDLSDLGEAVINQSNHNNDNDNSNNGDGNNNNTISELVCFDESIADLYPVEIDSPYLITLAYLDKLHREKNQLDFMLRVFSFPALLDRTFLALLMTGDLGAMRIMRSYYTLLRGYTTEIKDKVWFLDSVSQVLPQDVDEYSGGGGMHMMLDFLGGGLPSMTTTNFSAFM
Summary of the method: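 Bound GST-tagged yeast transcription factors, applied at about 100-200 nM to double-stranded universal all-10-mer Agilent arrays, were detected with fluorescent anti-GST. Scans were normalised with masliner. A modified Wilcoxon-Mann-Whitney statistic, the E-score, was assigned to each ungapped eight-base word pooled with its reverse complement by the Universal PBM Analysis Suite.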

| Sequence | PBM E-score |
| --- | --- |
| AGTCTTAA | -0.235 |
| CCATAACA | -0.0704 |
| ATTTCTAA | -0.0773 |
| CCCAGAAC | -0.134 |
| AGCGCGAC | -0.0248 |
| GTTGAGTA | 0.023 |
| ACCGCTCG | 0.181 |
| CTAGCTAA | -0.00655 |
| ATTGGGTC | -0.0362 |
| AATCCTAC | -0.125 |
| AGTCCAGC | -0.0392 |
| CATCAAGC | -0.00126 |
| ATTCGGCA | 0.186 |
| AATCCCTC | -0.105 |
| AGCGCGCA | 0.14 |
| CGAGCTTC | 0.288 |
| AGAACCTA | -0.02 |
| ATGTCTCG | 0.246 |
| AAGTTGAA | -0.174 |
| CATTTGCA | 0.154 |
| CCATACTC | -0.115 |
| AGTTCAAG | 0.112 |
| ACCATCTA | -0.189 |
| GCCTATGA | -0.201 |
| GTCACGCA | 0.0134 |

| Sequence | PBM E-score |
| --- | --- |
| CACCACTC | -0.0634 |
| CAGCAAGC | -0.134 |
| ACTCACTC | -0.0529 |
| ACCACCGG | -0.0728 |
| AGCGGCAA | -0.158 |
| AATTGAAC | -0.0075 |
| GAGCCCCA | -0.107 |
| ACCCCTGG | -0.216 |
| CCATACAG | -0.0505 |
| ACTATAGA | -0.145 |
| GCCATAAA | -0.0403 |
| AATCCAAT | -0.116 |
| GGTAAACC | -0.101 |
| ACCTTACT | 0.15 |
| TAAGGCGA | 0.0658 |
| GATGGATA | -0.158 |
| AATGCGAA | 0.202 |
| AACAGAGT | 0.109 |
| GTACGTAA | 0.312 |
| GTTATAAC | -0.0243 |
| ATAACTCG | 0.213 |
| CCCAAGAA | -0.194 |
| GGACTACC | -0.24 |
| ACGCCCAC | -0.181 |
| AAGATGTG | 0.00138 |

| Sequence | PBM E-score |
| --- | --- |
| GGTTGTGA | -0.0556 |
| TTAGACAA | -0.0641 |
| GGCGTCTA | -0.243 |
| AAGAAAAA | -0.272 |
| ATGACCTG | -0.076 |
| GCGCTGAA | -0.00226 |
| CGTTGCGA | 0.3 |
| ACGCACCG | 0.157 |
| ATTACTGA | 0.0728 |
| CCTCAATA | -0.215 |
| CTACTGAG | 0.0257 |
| TCCAAAGA | -0.212 |
| GAGTACCA | -0.17 |
| TATCGTGA | 0.0607 |
| AAACACCT | 0.0166 |
| AGTTCCAT | -0.0425 |
| AGGTGTAC | 0.0881 |
| ATGCGGTC | -0.0512 |
| AATGAGTG | -0.136 |
| CTGATCGC | -0.00452 |
| AAGAATCC | -0.0925 |
| CCATGCGA | 0.157 |
| ATCACTAA | -0.0903 |
| CCCGCCCC | -0.0225 |
| AAGGATGC | 0.0179 |

| Sequence | PBM E-score |
| --- | --- |
| CCTGCTAG | -0.336 |
| AGGCATTC | -0.2 |
| ACATCTCG | 0.187 |
| GCTGACTA | -0.205 |
| GACGCAAA | 0.114 |
| TAGCTTAA | 0.0865 |
| ACTATGCA | 0.108 |
| GAAGCGCC | 0.0109 |
| TAATATAA | 0.193 |
| CTGCCAGA | -0.126 |
| ACTCCACT | -0.243 |
| ACAGCTTG | 0.00728 |
| TAATGCGA | 0.293 |
| CTTTCACC | 0.105 |
| AGTACACC | 0.0652 |
| CGCAGCTA | -0.0418 |
| ATATACCG | 0.21 |
| AAATATTT | -0.00064 |
| CTGCTGGC | -0.208 |
| ACCGTCCG | 0.0211 |
| GACACTCA | -0.102 |
| AATTTTCA | -0.0619 |
| CCACTCTA | -0.304 |
| GGTCCTGA | -0.126 |
| CAGTGGTC | 0.0767 |

| Sequence | PBM E-score |
| --- | --- |
| CCGGTGCG | 0.115 |
| GGTAACAC | -0.135 |
| CCTGGTAG | -0.193 |
| CAGTCACG | -0.224 |
| CCTTATAC | 0.162 |
| CACACGCA | -0.0742 |
| CACACCGG | -0.271 |
| CCTAAGCC | -0.254 |
| CCCGAACC | 0.169 |
| CAAACCAG | -0.128 |
| TATCTTGA | -0.0626 |
| CAGCAAAG | -0.0505 |
| ATTGGCAG | -0.281 |
| ACGCTGCC | -0.184 |
| AAACAATA | 0.0442 |
| AGTCTCTC | -0.135 |
| GTCTCGAA | -0.00716 |
| GAAACCAC | -0.057 |
| GTTACGAA | 0.404 |
| ACGTGCAA | -0.0198 |
| CAGCCCGC | -0.297 |
| GACTAGAC | -0.103 |
| CAAACACG | 0.14 |
| GCCGTTCC | 0.444 |
| TGCGCTAA | 0.0517 |

| Sequence | PBM E-score |
| --- | --- |
| TATCTGCA | -0.00193 |
| ACCTCCCG | 0.0728 |
| CAGGGGAC | -0.271 |
| CGATGGCG | 0.00544 |
| AATCCGGT | 0.114 |
| GGCTCCTA | -0.159 |
| TACAAGGA | 0.0577 |
| AAATTCTT | -0.244 |
| CTTCACCC | -0.0276 |
| CACTGGGC | -0.181 |
| GCTAATCC | -0.00463 |
| GGTGCATA | -0.0343 |
| CTGTAAGC | -0.0915 |
| CAAGATCG | 0.122 |
| CTGTGGAA | -0.22 |
| GCGGACCA | 0.0245 |
| TTGAGAAA | -0.0766 |
| ATGTAATA | 0.106 |
| CAAGAGCC | -0.281 |
| CTTGAACA | -0.0552 |
| AAGCCGGA | -0.0426 |
| AACGTCGC | 0.182 |
| CTGAGAAG | -0.18 |
| ATTGCCCA | -0.181 |
| GACGGAGA | -0.0777 |

| Sequence | PBM E-score |
| --- | --- |
| ACTAACCC | -0.109 |
| TCGTGTAA | 0.321 |
| AGTCATCG | 0.0645 |
| AAATTAAT | -0.0222 |
| TGACGCCA | 0.0547 |
| GAGCCGAC | -0.00336 |
| CGCCTATA | 0.099 |
| CATATGGA | 0.0838 |
| CCTACACC | -0.2 |
| GCCTTAGA | -0.218 |
| ATTCATAG | 0.00436 |
| GCTTGTAC | 0.289 |
| ACCGAACA | 0.18 |
| CCGGAGCA | -0.0598 |
| CAATTGGC | -0.0158 |
| TGTACAAA | -0.0698 |
| AGCTCTGC | -0.402 |
| AATGTAGA | -0.0549 |
| AGCTTGCG | -0.0268 |
| CTGTATAA | 0.0431 |
| AGAGTTAG | -0.197 |
| GACATAGA | -0.0813 |

From the supplement of paper PMC3334620
